Results on 59 compounds are retold here after PubChem BioAssay AID463173 (ICCB-Longwood Screening Facility, Harvard Medical School, 2010).

The structures appear in SMILES notation. Hit rate of the full screen: of about 52,000 compounds, about 1,700 (3.3%) were called active. No stated cut-off is given here; in the data, active means survival mostly below about 52% (no sharp cut-off); inactive means mostly above about 56%. Some of the results follow.

The test relates to Wild type. The experiment in a line: growth inhibition of S. aureus wild type versus tarO mutant, primary screen, teichoic acid synthesis inhibitors, RN4220, OD600 (AID 463173). To be noted: S. aureus RN4220 wild type/DeltatarO growth, OD600, 18 h, hits give low values, screened at 18.75 µg/mL (by protocol).
For the compound `Cc1ccc(CN2CCCn3nc(C(=O)NCCc4ccccc4Cl)cc3C2=O)cc1`, the survival is inactive: 65%.

With `Cc1ccc(C(=O)Nc2cccc(C(=O)OCc3cc(=O)n4nc(C5CC5)sc4n3)c2)cc1`, the survival was inactive: 55%. With `Clc1ccc(Nc2c(-c3ccccc3Cl)nc3ccc(Cl)cn23)cc1`, the survival was inactive: 25%. As to `Cc1nc(NCCCCCO)c2nnn(Cc3ccc(F)cc3)c2n1`, the survival is inactive: 99%. Take `COc1ccc(C)cc1NC(=O)c1cc(S(=O)(=O)N2CCN(c3cccc(C)c3C)CC2)ccc1F`: the survival was inactive: 153%. To `CCOc1ccc(N2CC(NC(=O)C3CC3)CC2=O)cc1` (centres undefined) belongs inactive: 66%; to `O=S(=O)(NC1CC2CCC1C2)c1ccc2c(c1)OCCO2` (centres undefined), inactive: 125%; to `COc1ccc(-n2nc(C(=O)NCc3ccc(F)cc3Cl)c3c4ccccc4n(C)c3c2=O)cc1Cl`, inactive: 80%. Take `COCC(C)Nc1ncnc2c1cnn2-c1ccc(C)c(C)c1` (centres undefined): the survival was inactive: 59%. To `CCCOc1ccc(C2CC(=O)Nc3c2c(=O)n(C)c(=O)n3C)cc1OC` (centres undefined) belongs inactive: 84%; to `O=C(CNC(=O)c1cccs1)c1ccc(F)cc1`, inactive: 112%.

On to `O=CN(Cc1ccco1)C1(C(=O)NC2CCCCC2)CCCCC1`, for which the survival was inactive: 101%. Consider `CCCCN(CC)CCCNC(=O)Cn1ncc2c3ccccc3n(Cc3ccc(F)cc3)c2c1=O`, for which the survival was inactive: 81%.

In the case of `CC(NC(=O)c1ccc2c(c1)sc1nc(-c3ccccc3)cn12)C12CC3CC(CC(C3)C1)C2` (centres undefined), the survival is inactive: 81%. With `Cn1c(=O)c(=O)n(C)c2cc(S(=O)(=O)N3CCN(c4ccccc4)CC3)ccc21` the figure was inactive: 78%; with `O=C(Nc1ccc2nc(-c3ccccc3)[nH]c2c1)c1ccco1`, active: 1%. To `Cc1cccc(C(=O)Oc2c(Sc3ccccc3)c(C)nn2C(C)(C)C)c1` belongs inactive: 63%; to `COc1ccc(Nc2c3c(nc4nncn24)CCC3)cc1OC`, inactive: 85%; to `Cc1ccc(Nc2ncccc2C(=O)NC2CCCCC2)cc1`, inactive: 110%. To `COc1ccc(S(=O)(=O)NCc2nc3nc(C)cc(C)n3n2)cc1OC` belongs inactive: 82%; to `COc1ccc(CNC(=O)CSc2c3c(nc4ccc(Cl)cc24)CCCC3)cc1`, inactive: 76%; to `CCc1nn(CC(=O)Nc2ccc(NC(C)=O)cc2)c(=O)c2cc3sccc3n12`, inactive: 86%. In the case of `O=C(CN(Cc1ccccc1Cl)C(=O)c1ccc(CN2CCOCC2)o1)NCc1ccccc1`, the survival was inactive: 115%.

For the compound `NC(Cc1ccc2nonc2c1)C(=O)O` (centres undefined), the survival is inactive: 102%. As for `CCOC(=O)c1ccc(N2C(=O)c3n[nH]c(-c4ccco4)c3C2c2cccc(O)c2)cc1` (centres undefined), the survival is inactive: 16%. To `CCOc1ccc(NC(=O)N2CCN3CCCCC3C2)cc1` (centres undefined) belongs inactive: 80%.

For the compound `COCCNC(=O)CN1C(=O)c2cccnc2Oc2ccc(Cl)cc21`, the survival was inactive: 80%.

As to `Cc1ccc(S(=O)(=O)N(CCc2ccccc2)CC(=O)Nc2ccc(Br)cc2)cc1`, the survival was inactive: 95%. With `CCc1cccc(CC)c1NC(=O)CCS(=O)(=O)c1ccc2c(c1)CCN2C(C)=O`, the survival was inactive: 93%. With `O=[N+]([O-])c1cc(-c2nc(-c3ccccc3)no2)ccc1N1CCOCC1` the figure was inactive: 85%.

Consider `COc1ccc(-c2nc(CCNC(=O)c3ccc(Br)o3)cs2)cc1`, for which the survival is inactive: 124%. With `CCOc1ccccc1NC(=O)C1=C(C)Nc2ncnn2C1c1ccc(C)o1` (centres undefined) the figure was inactive: 79%.

As for `CCc1ccccc1NC(=O)Cn1c(SCc2ccc(F)cc2)nc2ccncc21`, the survival is inactive: 48%. With `Cc1cccc(NC(=O)c2oc3ccccc3c2NC(=O)Cc2coc3ccc(C(C)C)cc23)c1` the figure was inactive: 95%. For `CC1(C)CC(=O)C2=C(C1)NCN(Cc1ccccc1)C2`, the survival is inactive: 108%.

On to `COc1ccc(-c2nc(CNS(=O)(=O)c3cccc(F)c3)cs2)cc1`, for which the survival is inactive: 81%. `O=C(CCCn1c(=O)c2cccn2c2ccccc21)NCc1ccccc1Br`: the survival was inactive: 55%. Consider `O=C(NC1CCCCC1)C(c1ccc(F)cc1)N(Cc1ccco1)C(=O)c1ccccn1` (centres undefined), for which the survival was inactive: 97%.

For `CC1CCN(C(=O)C2COc3ccccc3C2)CC1` (centres undefined), the survival was inactive: 65%.

For `Cc1ccc(Nc2sc(C(=O)c3ccccc3)c(N)c2C(N)=O)cc1`, the survival was inactive: 130%. To `CNC(=O)c1cnc2sc(N3CCCCCC3)nn2c1=O` belongs inactive: 115%. To `CCOc1ccc(N(CC)C(=O)CCc2nc(-c3ccccc3F)no2)cc1` belongs inactive: 39%.

As to `COc1ccc(C(=O)Nc2nc3ccccc3n2CCOc2ccc(Cl)cc2)cc1`, the survival was active: 4%. With `Cc1cccn2c(=O)cc(CSc3nnc(NC(=O)c4ccc(F)cc4)s3)nc12`, the survival is inactive: 84%.

For the compound `O=C(NCCc1ccccc1)c1ccc(Cn2c(SCc3ccccc3)nc3cccnc32)cc1`, the survival is inactive: 121%. To `CCC(Sc1nnc(-c2ccc(OC)c(OC)c2)c(-c2ccc(OC)c(OC)c2)n1)C(=O)NC1CCCC1` (centres undefined) belongs inactive: 128%. To `CCCOc1ccc(Oc2nc(NCC(C)C)nc(N(C)C)n2)nn1` belongs inactive: 94%; to `CCc1ccc(NC(=O)C(Cc2ccccc2)NS(=O)(=O)c2ccc3c(c2)c(=O)n(C)c(=O)n3C)cc1` (centres undefined), inactive: 61%; to `Oc1ccc(Br)cc1C=Nc1cccc(-c2nc3ccccc3o2)c1`, inactive: 111%. To `CCOc1ccc2nc(NCCNC(=O)NCc3ccccc3)c(C#N)cc2c1` belongs inactive: 107%; to `Cc1nc(-n2nc(C)c(CCC(C)C)c2C)sc1C(=O)Nc1cccc(Cl)c1`, inactive: 146%; to `Clc1ccc(NCc2nc3ccccc3n2CCOc2ccccc2)cc1`, inactive: 74%. `COc1ccc(Cl)cc1NC(=O)Cn1c(=O)c2ccccc2n2nncc12`: the survival was inactive: 68%.

As for `CC1(C)Cc2ccccc2C(N/N=C/c2ccncc2)=N1`, the survival is inactive: 99%. With `CCC(C(=O)Nc1ccc(C)c(Cl)c1)n1c(=O)c(-c2ccccc2NC(C)=O)nc2ccccc21` (centres undefined) the figure was inactive: 54%.

For `Cc1cccc(C)c1NC(=O)c1sc(-n2nc(C)c(Cc3ccc4c(c3)OCO4)c2C)nc1C`, the survival is inactive: 124%. On to `COc1cc(CNCCSc2nnnn2C)ccc1OCc1ccc(Cl)cc1Cl`, for which the survival is active: 0%.

Take `Cc1ccc(NC(=O)Cn2nc3c(cc2=O)CCCC3)cc1Cl`: the survival is inactive: 74%.

As for `CCN(C(=O)CSc1nc2ccccc2nc1Cc1ccc(F)cc1)c1cccc(C)c1`, the survival is inactive: 88%.
